The results in this text go back to PubChem BioAssay AID256 (DTP/NCI, 2004).

Inconclusive results and toxic doses are left out. The source holds more than one record for some entries. The list is limited to them. An entry can have further records. The records of an entry are repeated measurements (runs, samples, wells, individuals or studies).

In the experiment the test system is CD2F1 mice, L1210 leukemia ip, survival T/C. Nature of the experiment: NCI In Vivo Anticancer Drug Screen. Data for tumor model L1210 Leukemia (intraperitoneal) in CD2F1 (CDF1) mice. The following applies: higher = longer survival. As for the experimental part: The antitumor activity of compounds was measured in mice bearing transplantable tumors. Survival or tumor size were measured and the results are expressed as the measurement made in the treated group (T) divided by the measurement made in the vehicle treated control group (C). The tumor model used in this assay is L1210 Leukemia (intraperitoneal) in CD2F1 (CDF1) mice

As to `CNC=O`, the T/C (endpoint: mean survival time, dose: 1600.0 mg/kg/injection, schedule: Q01DX009 (ip), vehicle: saline) is 108 % of control and 150 % of control. Turning to `Nc1cc2[nH]cnc2c(=O)[nH]1`, the T/C (endpoint: mean survival time, dose: 200.0 mg/kg/injection, schedule: Q01DX009 (ip), vehicle: suspension in saline) was 95 % of control and 150 % of control. Regarding `Nc1nc(=S)c2[nH]cnc2[nH]1`, the T/C is, setting by setting: (endpoint: mean survival time, dose: 3.0 mg/kg/injection, schedule: Q01DX009 (ip), vehicle: acid diluted with saline) 97 % of control, 166 % of control, 172 % of control; (endpoint: mean survival time, dose: 6.0 mg/kg/injection, schedule: Q01DX009 (ip), vehicle: acid diluted with saline) 86 % of control, 114 % of control, 160 % of control. `CC1(C)OC2C3COP(=O)(N(CCCl)CCCl)NC(O3)C2O1` (stereo not drawn): where the note is “endpoint: mean survival time, dose: 15.6 mg/kg/injection, schedule: Q01DX001 (ip), vehicle: distilled water + Tween-80”, the T/C was 98 % of control and 187 % of control.

For `O=S(=O)(CCl)OCCCl`, the T/C (endpoint: median survival time, dose: 25.0 mg/kg/injection, schedule: Q01DX009 (ip), vehicle: saline with Tween-80) is 111 % of control and 154 % of control.

Turning to `O=NNc1cnccn1`, the T/C (endpoint: median survival time, dose: 66.67 mg/kg/injection, schedule: Q01DX009 (ip), vehicle: water) was 121 % of control and 185 % of control. Turning to `CS(=O)(=O)OCCN(CCOS(C)(=O)=O)c1ccc(N=Nc2ccccc2C(=O)O)cc1`, the T/C (endpoint: mean survival time, dose: 12.5 mg/kg/injection, schedule: Q01DX009 (ip), vehicle: Klucel (hydroxypropylcellulose) (HPC)) was 100 % of control and 174 % of control. Take `COc1cccc2c1C(=O)c1c(O)c3c(c(O)c1C2=O)C[C@@](O)(C(O)CO)C[C@@H]3OC1CC(N(Cc2ccccc2)Cc2ccccc2)C(O)C(C)O1` (stereo partly drawn): the T/C (endpoint: median survival time, dose: 100.0 mg/kg/injection, schedule: Q01DX009 (ip), vehicle: water) was 101 % of control and 160 % of control. On to `O=C(O)C(O)C(O)C(OC1OC(CO)C(O)C(O)C1O)C(O)CO.O=C(O)C(O)C(O)C(OC1OC(CO)C(O)C(O)C1O)C(O)CO.[NH-]C1CCCCC1[NH-].[Pt+2]` (stereo not drawn), for which, where the note is “endpoint: median survival time, dose: 100.0 mg/kg/injection, schedule: Q04DX003 (ip), vehicle: saline”, the T/C is 97 % of control and 195 % of control. Consider `O=C(O)c1cc(C(=O)O)cc(S(=O)(=O)O)c1.[NH-]C1CCCCC1[NH-].[Pt+2]`, for which the T/C (endpoint: median survival time, dose: 6.25 mg/kg/injection, schedule: Q04DX003 (ip), vehicle: saline) was 112 % of control and 164 % of control.

As for `COc1ccc(OC)c(NC(=O)OCC(F)(F)F)c1`, the T/C by setting is: (endpoint: mean survival time, dose: 100.0 mg/kg/injection, schedule: Q01DX009 (ip), vehicle: saline with Tween-80) 95 % of control and 195 % of control; (endpoint: mean survival time, dose: 400.0 mg/kg/injection, schedule: Q01DX009 (ip), vehicle: saline with Tween-80) 97 % of control and 157 % of control. As to `NC1CCCCC1N.O=S(=O)([O-])c1cccc(S(=O)(=O)[O-])c1.[Pt+4]`, the T/C by setting is: (endpoint: median survival time, dose: 3.12 mg/kg/injection, schedule: Q04DX003 (ip), vehicle: saline with Tween-80) 124 % of control and 162 % of control; (endpoint: median survival time, dose: 50.0 mg/kg/injection, schedule: Q04DX003 (ip), vehicle: saline with Tween-80) 112 % of control and 160 % of control. In the case of `CCCCCCCCCCCCCCCC(=O)Nc1ccn(C2OC(CO)C(O)C2O)c(=O)n1` (stereo not drawn), the T/C (endpoint: mean survival time, dose: 100.0 mg/kg/injection, schedule: Q01DX009 (ip), vehicle: saline) was 102 % of control and 173 % of control. For the molecule `C=CC(CN1CC1)OC(C)=O` (stereo not drawn), the T/C (endpoint: mean survival time, dose: 15.0 mg/kg/injection, schedule: Q01DX009 (ip), vehicle: saline) was 98 % of control and 152 % of control. For the molecule `NC1CCCCC1N.O=C([O-])c1ccc(N=Nc2cccc([N+](=O)[O-])c2)cc1O.O=C([O-])c1ccc(N=Nc2cccc([N+](=O)[O-])c2)cc1O.[Pt+4]`, under “endpoint: median survival time, dose: 25.0 mg/kg/injection, schedule: Q04DX003 (ip), vehicle: saline with Tween-80”, the T/C is 91 % of control and 361 % of control.

`CC(=O)c1ccc([NH-])c([NH-])c1.[Cl][Pt+2][Cl]`: the T/C (endpoint: mean survival time, dose: 80.0 mg/kg/injection, schedule: Q01DX009 (ip), vehicle: distilled water + Tween-80) is 121 % of control and 162 % of control. Take `Nc1nc(Cl)c2[nH]cnc2n1`: the T/C (endpoint: mean survival time, dose: 100.0 mg/kg/injection, schedule: Q04DX003 (ip), vehicle: saline with Tween-80) was 100 % of control and 152 % of control. On to `CCC1(OC(=O)CN)C(=O)OCc2c1cc1n(c2=O)Cc2cc3ccccc3nc2-1` (stereo not drawn), for which the T/C (endpoint: median survival time, dose: 60.0 mg/kg/injection, schedule: Q04DX002 (ip), vehicle: saline) was 116 % of control and 198 % of control.

For the molecule `COc1cccc2c1C(=O)c1c(O)c3c(c(O)c1C2=O)C[C@@](O)(C(=O)CO)C[C@@H]3OC1CC(N)C(O)C(C)O1` (stereo partly drawn), the T/C (endpoint: mean survival time, dose: 2.0 mg/kg/injection, schedule: Q01DX005 (ip), vehicle: water) was 86 % of control and 182 % of control; the T/C (endpoint: mean survival time, dose: 12.0 mg/kg/injection, schedule: Q01DX001 (ip), vehicle: saline) was 117 % of control and 166 % of control.
